For the test, the target named is T1, KDR on KDR-transfected 293H cells (human, UniProt P35968).
T1 construct: whole, on cells; also called KDR-expressing cells; KDR-transfected cells
As to the kind of experiment: neutravidin-coated fluorescent beads, KDR- vs mock-transfected 293H cells.

T1 sequence (P35968 20-1356): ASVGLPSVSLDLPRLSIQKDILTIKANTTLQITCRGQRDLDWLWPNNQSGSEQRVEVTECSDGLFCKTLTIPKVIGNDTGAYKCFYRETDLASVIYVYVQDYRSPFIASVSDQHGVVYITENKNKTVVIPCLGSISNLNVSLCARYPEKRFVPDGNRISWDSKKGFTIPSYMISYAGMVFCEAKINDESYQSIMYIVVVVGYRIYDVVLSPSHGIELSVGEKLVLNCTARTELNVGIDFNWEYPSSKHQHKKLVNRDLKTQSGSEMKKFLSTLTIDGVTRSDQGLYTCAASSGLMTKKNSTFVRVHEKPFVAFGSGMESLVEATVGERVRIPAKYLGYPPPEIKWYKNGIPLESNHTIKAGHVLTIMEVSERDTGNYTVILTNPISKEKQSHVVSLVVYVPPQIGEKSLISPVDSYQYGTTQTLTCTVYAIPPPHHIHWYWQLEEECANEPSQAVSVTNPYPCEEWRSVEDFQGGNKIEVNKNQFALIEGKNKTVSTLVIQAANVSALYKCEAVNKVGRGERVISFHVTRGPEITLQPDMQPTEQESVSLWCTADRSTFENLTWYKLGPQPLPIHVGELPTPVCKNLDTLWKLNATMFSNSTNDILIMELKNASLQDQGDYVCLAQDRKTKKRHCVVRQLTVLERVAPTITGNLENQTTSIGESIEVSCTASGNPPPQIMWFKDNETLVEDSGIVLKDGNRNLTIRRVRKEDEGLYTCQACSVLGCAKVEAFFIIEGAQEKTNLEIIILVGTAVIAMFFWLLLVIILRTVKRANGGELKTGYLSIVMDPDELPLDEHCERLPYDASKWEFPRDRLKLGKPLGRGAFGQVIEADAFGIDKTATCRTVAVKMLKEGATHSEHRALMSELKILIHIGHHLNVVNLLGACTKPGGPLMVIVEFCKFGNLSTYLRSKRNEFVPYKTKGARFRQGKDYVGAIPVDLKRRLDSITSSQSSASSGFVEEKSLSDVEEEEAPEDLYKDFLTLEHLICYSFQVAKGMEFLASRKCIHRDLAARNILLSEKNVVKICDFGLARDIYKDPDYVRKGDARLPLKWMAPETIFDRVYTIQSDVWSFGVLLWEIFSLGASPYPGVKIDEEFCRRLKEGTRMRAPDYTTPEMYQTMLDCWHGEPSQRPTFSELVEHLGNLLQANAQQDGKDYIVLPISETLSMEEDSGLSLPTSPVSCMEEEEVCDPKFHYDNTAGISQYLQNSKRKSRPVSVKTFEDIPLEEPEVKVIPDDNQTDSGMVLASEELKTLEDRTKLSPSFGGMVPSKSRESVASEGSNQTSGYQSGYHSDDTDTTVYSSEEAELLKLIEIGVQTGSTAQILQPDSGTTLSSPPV

B1: unconjugated Neutravidin-coated red fluorescent microspheres (other, UniProt P02701 25-152, looked up)
chain: ARKCSLTGKWTNDLGSNMTIGAVNSRGEFTGTYITAVTATSNEIKESPLHGTQNTINKRTQPTFGFTVNWKFSESTTVFTGQCFIDRNGKEVLKTMWLLRSSVNDIGDDWKATRVGINIFTRLRTQKE
notes: negative control; also called avidin beads with nothing attached
With B1, the binding result is reported as “no binding”.

The values above are taken from patent US20100003195A1 (published 2010).
